# Laboratory results from the supplement of paper PMC8728848.
# This is one part of the list.
# B1: LICBM33A (Lactococcus lactis), Q9CE94 (protein)
# chain: MKKLLTGLLVAAGLLSVSLLIKTDTVSAHGYVQSPPARGYQGQLDSQSLGWTAAFNIYGNVISNPQSLEAPKGFPECGPADGRIASANGGLGQIGDFVLDNQTSSRWKKTSISTGSNIFTWKYTAPHKTTKWHYYMTKTGWDQNAPLKHSELELIGTINHDGSPATNNLSHTINIPTDRSGYHIVLAVWDVADTSNAFYNVIDINVNNKNASSQVFGPFL
# Key:
# Test in all cases: glycan array binding signal (z-score within array); higher = stronger binding
# Conditions in all cases: glycan notation: IUPAC condensed, linker removed
# [1] = target: Gal3S(b1-3)[Fuc(a1-4)]GlcNAc
# Method in brief: (§1)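 From the Consortium for Functional Glycomics database, 3228 arrays were curated, keeping only those whose protein sequence was available. Binding is given as a within-array Z-score averaged across arrays sharing a protein sequence and across linkers. Negative Z-scores can be read as non-binding.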
# Gal3S(b1-4)Glc = target: Gal3S(b1-4)Glc
# Method in brief: as §1
# Gal3S(b1-4)Glc6S = target: Gal3S(b1-4)Glc6S
# Method in brief: as §1
# Gal3S(b1-4)GlcNAc = target: Gal3S(b1-4)GlcNAc
# Method in brief: as §1
# [2] = target: Gal3S(b1-4)[Fuc(a1-3)]Glc6S
# Method in brief: as §1
# [3] = target: Gal3S(b1-4)[Fuc(a1-3)]GlcNAc
# Method in brief: as §1
# [4] = target: Gal3S(b1-4)[Fuc(a1-3)]GlcNAc6S
# Method in brief: as §1
# Gal3S4S(b1-4)GlcNAc = target: Gal3S4S(b1-4)GlcNAc
# Method in brief: as §1
# Gal3S6S(b1-4)GlcNAc = target: Gal3S6S(b1-4)GlcNAc
# Method in brief: as §1
# Gal3S6S(b1-4)GlcNAc6S = target: Gal3S6S(b1-4)GlcNAc6S
# Method in brief: as §1
# Gal4S(b1-4)GlcNAc = target: Gal4S(b1-4)GlcNAc
# Method in brief: as §1
# Gal4S6S(b1-4)GlcNAc = target: Gal4S6S(b1-4)GlcNAc
# Method in brief: as §1
# Gal6P(b1-4)GlcNAc = target: Gal6P(b1-4)GlcNAc
# Method in brief: as §1
# Gal6S(b1-3)GlcNAc = target: Gal6S(b1-3)GlcNAc
# Method in brief: as §1
# Gal6S(b1-3)GlcNAc6S = target: Gal6S(b1-3)GlcNAc6S
# Method in brief: as §1
# Gal6S(b1-4)Glc = target: Gal6S(b1-4)Glc
# Method in brief: as §1
# Gal6S(b1-4)Glc6S = target: Gal6S(b1-4)Glc6S
# Method in brief: as §1
# Gal6S(b1-4)GlcNAc = target: Gal6S(b1-4)GlcNAc
# Method in brief: as §1
# Gal6S(b1-4)GlcNAc6S = target: Gal6S(b1-4)GlcNAc6S
# Method in brief: as §1
# GalNAc(a1-3)Gal = target: GalNAc(a1-3)Gal
# Method in brief: as §1
# GalNAc(a1-3)GalNAc = target: GalNAc(a1-3)GalNAc
# Method in brief: as §1
# [5] = target: GalNAc(a1-3)GalNAc(b1-3)Gal(a1-4)Gal(b1-4)Glc
# Method in brief: as §1
# [6] = target: GalNAc(a1-3)GalNAc(b1-3)Gal(a1-4)Gal(b1-4)GlcNAc
# Method in brief: as §1
# GalNAc(b1-3)Gal = target: GalNAc(b1-3)Gal
# Method in brief: as §1
# [7] = target: GalNAc(b1-3)Gal(a1-4)Gal(b1-4)GlcNAc
# Method in brief: as §1
# [8] = target: GalNAc(b1-3)Gal(a1-4)Gal(b1-4)GlcNAc(b1-3)Gal(b1-4)Glc
# Method in brief: as §1
# [9] = target: GalNAc(b1-3)Gal(a1-6)Gal(b1-4)Glc
# Method in brief: as §1
# GalNAc(b1-3)GalNAc = target: GalNAc(b1-3)GalNAc
# Method in brief: as §1
# GalNAc(b1-3)GlcNAc = target: GalNAc(b1-3)GlcNAc
# Method in brief: as §1
# GalNAc(b1-4)Gal(b1-4)Glc = target: GalNAc(b1-4)Gal(b1-4)Glc
# Method in brief: as §1
# GalNAc(b1-4)GlcNAc = target: GalNAc(b1-4)GlcNAc
# Method in brief: as §1
# [10] = target: GalNAc(b1-4)GlcNAc(b1-2)Man
# Method in brief: as §1
# [11] = target: GalNAc(b1-4)GlcNAc(b1-2)Man(a1-3)[GalNAc(b1-4)GlcNAc(b1-2)Man(a1-6)]Man(b1-4)GlcNAc(b1-4)GlcNAc
# Method in brief: as §1
# [12] = target: GalNAc(b1-4)GlcNAc(b1-3)GalNAc(b1-4)GlcNAc
# Method in brief: as §1
# GalNAc(b1-4)GlcNAc6S = target: GalNAc(b1-4)GlcNAc6S
# Method in brief: as §1
# GalNAc(b1-6)GalNAc = target: GalNAc(b1-6)GalNAc
# Method in brief: as §1
# GalNAc3S(b1-4)GlcNAc = target: GalNAc3S(b1-4)GlcNAc
# Method in brief: as §1
# GalNAc3S(b1-4)GlcNAc3S = target: GalNAc3S(b1-4)GlcNAc3S
# Method in brief: as §1
# [13] = target: GalNAc3S(b1-4)[Fuc(a1-3)]GlcNAc
# Method in brief: as §1
# GalNAc4S6S(b1-4)GlcNAc = target: GalNAc4S6S(b1-4)GlcNAc
# Method in brief: as §1
# GalNAc6S(b1-4)GlcNAc = target: GalNAc6S(b1-4)GlcNAc
# Method in brief: as §1
# Glc(a1-4)Glc = target: Glc(a1-4)Glc
# Method in brief: as §1
# [14] = target: Glc(a1-4)Glc(a1-4)Glc(a1-4)Glc
# Method in brief: as §1
# Glc(a1-6)Glc(a1-6)Glc = target: Glc(a1-6)Glc(a1-6)Glc
# Method in brief: as §1
# [15] = target: Glc(a1-6)Glc(a1-6)Glc(a1-6)Glc
# Method in brief: as §1
binder,measurement,setting,value
B1,glycan array binding signal (z-score),[1],1.94
same,glycan array binding signal (z-score),Gal3S(b1-4)Glc,-0.272
same,glycan array binding signal (z-score),Gal3S(b1-4)Glc6S,0.122
same,glycan array binding signal (z-score),Gal3S(b1-4)GlcNAc,0.583
same,glycan array binding signal (z-score),[2],-0.717
same,glycan array binding signal (z-score),[3],-0.127
same,glycan array binding signal (z-score),[4],1.57
same,glycan array binding signal (z-score),Gal3S4S(b1-4)GlcNAc,-0.485
same,glycan array binding signal (z-score),Gal3S6S(b1-4)GlcNAc,1.24
same,glycan array binding signal (z-score),Gal3S6S(b1-4)GlcNAc6S,-0.382
same,glycan array binding signal (z-score),Gal4S(b1-4)GlcNAc,-0.496
same,glycan array binding signal (z-score),Gal4S6S(b1-4)GlcNAc,0.179
same,glycan array binding signal (z-score),Gal6P(b1-4)GlcNAc,-0.468
same,glycan array binding signal (z-score),Gal6S(b1-3)GlcNAc,-0.066
same,glycan array binding signal (z-score),Gal6S(b1-3)GlcNAc6S,-1.45
same,glycan array binding signal (z-score),Gal6S(b1-4)Glc,-1.14
same,glycan array binding signal (z-score),Gal6S(b1-4)Glc6S,-1.04
same,glycan array binding signal (z-score),Gal6S(b1-4)GlcNAc,-0.46
same,glycan array binding signal (z-score),Gal6S(b1-4)GlcNAc6S,0.359
same,glycan array binding signal (z-score),GalNAc(a1-3)Gal,-0.554
same,glycan array binding signal (z-score),GalNAc(a1-3)GalNAc,-0.223
same,glycan array binding signal (z-score),[5],-0.96
same,glycan array binding signal (z-score),[6],-0.197
same,glycan array binding signal (z-score),GalNAc(b1-3)Gal,-0.192
same,glycan array binding signal (z-score),[7],-0.027
same,glycan array binding signal (z-score),[8],1.6
same,glycan array binding signal (z-score),[9],0.079
same,glycan array binding signal (z-score),GalNAc(b1-3)GalNAc,-0.339
same,glycan array binding signal (z-score),GalNAc(b1-3)GlcNAc,-0.274
same,glycan array binding signal (z-score),GalNAc(b1-4)Gal(b1-4)Glc,0.615
same,glycan array binding signal (z-score),GalNAc(b1-4)GlcNAc,-0.066
same,glycan array binding signal (z-score),[10],0.642
same,glycan array binding signal (z-score),[11],-0.578
same,glycan array binding signal (z-score),[12],-0.387
same,glycan array binding signal (z-score),GalNAc(b1-4)GlcNAc6S,-0.42
same,glycan array binding signal (z-score),GalNAc(b1-6)GalNAc,-0.886
same,glycan array binding signal (z-score),GalNAc3S(b1-4)GlcNAc,0.631
same,glycan array binding signal (z-score),GalNAc3S(b1-4)GlcNAc3S,-0.284
same,glycan array binding signal (z-score),[13],-0.43
same,glycan array binding signal (z-score),GalNAc4S6S(b1-4)GlcNAc,-0.487
same,glycan array binding signal (z-score),GalNAc6S(b1-4)GlcNAc,-0.463
same,glycan array binding signal (z-score),Glc(a1-4)Glc,-0.061
same,glycan array binding signal (z-score),[14],-0.426
same,glycan array binding signal (z-score),Glc(a1-6)Glc(a1-6)Glc,0.839
same,glycan array binding signal (z-score),[15],0.945
